Results are given in words; binding and its absence hold for the method and conditions named. Binding seen in cells or lysates may run through a third protein. Some entries that bind do so weakly or less than the wild type. For some assays here: Tags and fused reporters may be left off the sequences shown.
Legend:
[1] = target: Msb4_(22-81)–Spa2CRU (Saccharomyces cerevisiae) (UniProt Q12317+P23201); experiment: split reporter; foldback competition assay with full-length Spa2CRU extended at its N-terminus, Split-Ub as in Fig. 1E (transformants transferred onto 5-FOA medium) (Fig. 3B)
[2] = target: full-length Spa2CRU (Saccharomyces cerevisiae) (UniProt P23201); experiment: as above
[3] = target: T1, Msb3CRU (Saccharomyces cerevisiae) (UniProt P48566); experiment: split reporter; Split-Ub: four independent transformants each, directly transferred from selective medium onto 5-FOA medium (Fig. 1E)
T1 sequence: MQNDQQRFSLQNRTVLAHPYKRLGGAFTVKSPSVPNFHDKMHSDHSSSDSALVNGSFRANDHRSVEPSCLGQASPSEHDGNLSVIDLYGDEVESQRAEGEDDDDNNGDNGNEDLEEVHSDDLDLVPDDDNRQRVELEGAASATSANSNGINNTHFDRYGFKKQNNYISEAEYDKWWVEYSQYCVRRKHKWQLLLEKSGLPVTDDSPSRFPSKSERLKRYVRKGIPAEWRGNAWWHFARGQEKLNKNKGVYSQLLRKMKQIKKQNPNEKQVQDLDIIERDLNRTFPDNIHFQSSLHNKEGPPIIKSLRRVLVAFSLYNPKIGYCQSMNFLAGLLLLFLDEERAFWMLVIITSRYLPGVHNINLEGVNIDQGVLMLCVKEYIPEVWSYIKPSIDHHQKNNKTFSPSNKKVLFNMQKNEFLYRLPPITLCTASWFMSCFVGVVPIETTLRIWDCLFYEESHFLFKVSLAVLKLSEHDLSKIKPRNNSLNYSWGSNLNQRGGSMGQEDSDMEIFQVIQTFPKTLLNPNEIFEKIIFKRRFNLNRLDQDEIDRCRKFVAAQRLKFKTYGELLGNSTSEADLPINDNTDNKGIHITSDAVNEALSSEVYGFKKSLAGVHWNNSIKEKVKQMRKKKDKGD

Sequences of proteins named here, by UniProt entry; tags and fusion partners are left off. A change or cut given only in a name is not applied to a line headed by its entry. Residues count along the entry.
UniProt P23201: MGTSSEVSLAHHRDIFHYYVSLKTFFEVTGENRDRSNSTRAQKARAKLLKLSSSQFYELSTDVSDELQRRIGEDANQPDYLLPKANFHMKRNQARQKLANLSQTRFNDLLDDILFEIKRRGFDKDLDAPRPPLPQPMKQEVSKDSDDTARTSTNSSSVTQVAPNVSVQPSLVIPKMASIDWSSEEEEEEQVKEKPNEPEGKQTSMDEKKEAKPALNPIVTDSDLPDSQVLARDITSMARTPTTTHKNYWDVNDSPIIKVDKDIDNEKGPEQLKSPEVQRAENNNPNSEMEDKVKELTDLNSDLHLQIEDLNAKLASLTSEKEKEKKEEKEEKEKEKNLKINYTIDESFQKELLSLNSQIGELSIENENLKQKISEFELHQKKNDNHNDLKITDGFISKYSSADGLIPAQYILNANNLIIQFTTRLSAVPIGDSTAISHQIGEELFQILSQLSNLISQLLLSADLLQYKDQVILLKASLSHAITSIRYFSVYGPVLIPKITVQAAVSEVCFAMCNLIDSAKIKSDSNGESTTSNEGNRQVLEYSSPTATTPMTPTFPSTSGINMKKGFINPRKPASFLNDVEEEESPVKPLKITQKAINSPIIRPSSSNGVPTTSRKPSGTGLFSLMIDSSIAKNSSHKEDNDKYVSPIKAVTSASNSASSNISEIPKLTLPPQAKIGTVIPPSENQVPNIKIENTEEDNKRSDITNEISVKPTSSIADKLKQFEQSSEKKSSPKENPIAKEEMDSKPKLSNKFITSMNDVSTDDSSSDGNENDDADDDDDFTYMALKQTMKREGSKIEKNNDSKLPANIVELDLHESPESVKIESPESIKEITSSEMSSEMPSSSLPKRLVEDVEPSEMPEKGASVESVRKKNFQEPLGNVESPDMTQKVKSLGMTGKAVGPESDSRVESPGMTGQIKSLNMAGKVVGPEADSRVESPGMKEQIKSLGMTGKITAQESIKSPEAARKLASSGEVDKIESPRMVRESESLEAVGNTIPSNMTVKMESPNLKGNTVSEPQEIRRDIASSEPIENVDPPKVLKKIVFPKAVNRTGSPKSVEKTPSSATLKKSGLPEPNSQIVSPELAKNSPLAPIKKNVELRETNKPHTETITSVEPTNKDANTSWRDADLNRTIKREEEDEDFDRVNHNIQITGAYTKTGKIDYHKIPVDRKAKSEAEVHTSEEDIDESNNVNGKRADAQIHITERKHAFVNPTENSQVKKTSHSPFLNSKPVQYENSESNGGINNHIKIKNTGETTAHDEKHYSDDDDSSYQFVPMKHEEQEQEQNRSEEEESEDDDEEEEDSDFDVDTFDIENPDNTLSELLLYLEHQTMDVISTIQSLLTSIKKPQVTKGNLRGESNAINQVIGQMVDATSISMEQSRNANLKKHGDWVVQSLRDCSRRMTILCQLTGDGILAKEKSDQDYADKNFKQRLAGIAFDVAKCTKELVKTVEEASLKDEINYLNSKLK
SHD1CRU: residues 1-124 of P23201
UniProt P43597: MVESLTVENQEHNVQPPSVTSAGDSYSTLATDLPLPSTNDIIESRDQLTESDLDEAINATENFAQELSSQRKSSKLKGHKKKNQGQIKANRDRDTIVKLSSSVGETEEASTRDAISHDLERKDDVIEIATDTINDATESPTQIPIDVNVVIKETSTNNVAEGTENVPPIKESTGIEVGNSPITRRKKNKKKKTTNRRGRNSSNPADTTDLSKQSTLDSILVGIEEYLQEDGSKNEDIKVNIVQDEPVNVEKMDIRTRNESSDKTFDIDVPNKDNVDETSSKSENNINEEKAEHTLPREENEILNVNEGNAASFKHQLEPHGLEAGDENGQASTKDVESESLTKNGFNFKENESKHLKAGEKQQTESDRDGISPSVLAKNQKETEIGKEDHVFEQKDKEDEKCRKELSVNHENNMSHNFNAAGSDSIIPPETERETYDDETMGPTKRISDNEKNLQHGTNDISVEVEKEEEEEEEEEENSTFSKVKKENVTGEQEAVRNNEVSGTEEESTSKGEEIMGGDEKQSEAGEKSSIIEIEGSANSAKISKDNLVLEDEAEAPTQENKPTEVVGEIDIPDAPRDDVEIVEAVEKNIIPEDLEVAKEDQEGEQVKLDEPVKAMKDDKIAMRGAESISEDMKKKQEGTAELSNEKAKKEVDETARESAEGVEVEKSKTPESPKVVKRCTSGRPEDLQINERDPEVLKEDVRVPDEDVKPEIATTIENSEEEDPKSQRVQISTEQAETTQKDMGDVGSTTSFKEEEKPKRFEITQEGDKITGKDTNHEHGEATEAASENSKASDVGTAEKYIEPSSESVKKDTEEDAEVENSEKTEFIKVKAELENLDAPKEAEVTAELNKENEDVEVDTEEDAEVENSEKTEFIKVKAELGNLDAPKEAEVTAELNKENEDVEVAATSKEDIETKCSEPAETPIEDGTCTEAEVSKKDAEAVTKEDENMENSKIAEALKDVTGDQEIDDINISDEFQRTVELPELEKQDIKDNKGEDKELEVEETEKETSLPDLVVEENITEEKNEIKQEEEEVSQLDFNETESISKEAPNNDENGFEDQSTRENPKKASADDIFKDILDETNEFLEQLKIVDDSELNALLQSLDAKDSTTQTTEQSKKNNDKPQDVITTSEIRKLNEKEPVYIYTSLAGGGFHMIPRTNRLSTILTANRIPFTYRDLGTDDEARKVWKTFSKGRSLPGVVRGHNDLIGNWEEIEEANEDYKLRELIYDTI

[4] = target: T2, Msb4CRU (Saccharomyces cerevisiae) (UniProt Q12317); experiment: as above
T2 sequence: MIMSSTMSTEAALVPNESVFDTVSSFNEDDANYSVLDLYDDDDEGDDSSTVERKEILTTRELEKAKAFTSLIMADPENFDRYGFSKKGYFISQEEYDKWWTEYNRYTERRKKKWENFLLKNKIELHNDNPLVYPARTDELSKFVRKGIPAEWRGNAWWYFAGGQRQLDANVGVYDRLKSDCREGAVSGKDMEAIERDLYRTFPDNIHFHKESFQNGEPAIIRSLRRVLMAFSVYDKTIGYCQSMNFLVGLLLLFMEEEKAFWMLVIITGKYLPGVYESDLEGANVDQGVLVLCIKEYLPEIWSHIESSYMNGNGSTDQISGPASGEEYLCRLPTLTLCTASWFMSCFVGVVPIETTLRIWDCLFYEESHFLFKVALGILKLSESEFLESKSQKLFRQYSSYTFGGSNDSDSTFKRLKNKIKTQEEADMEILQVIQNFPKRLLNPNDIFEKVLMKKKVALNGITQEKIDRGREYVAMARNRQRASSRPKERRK

[5] = target: SHD1CRU (Saccharomyces cerevisiae) (UniProt P23201); experiment: split reporter; foldback competition assay, Split-Ub spotted as in Fig. 1C: SHD1CRU extended at its N-terminus by an FRM-containing stretch that occupies the pocket intramolecularly; loss of the Nub–Msb3 signal on 5-FOA is read as binding of the stretch (Fig. 3C, 7C)
[6] = target: SHD1CRU (Saccharomyces cerevisiae) (UniProt P23201); experiment: split reporter; small-scale Split-Ub: diploid cells co-expressing a Nub and a CRU fusion spotted in 10-fold serial dilutions from OD600=1 on SD medium with 5-FOA, 30°C, 2-5 days
[7] = target: T3, Ste5CRU (Saccharomyces cerevisiae) (UniProt P32917); experiment: as above
T3 sequence: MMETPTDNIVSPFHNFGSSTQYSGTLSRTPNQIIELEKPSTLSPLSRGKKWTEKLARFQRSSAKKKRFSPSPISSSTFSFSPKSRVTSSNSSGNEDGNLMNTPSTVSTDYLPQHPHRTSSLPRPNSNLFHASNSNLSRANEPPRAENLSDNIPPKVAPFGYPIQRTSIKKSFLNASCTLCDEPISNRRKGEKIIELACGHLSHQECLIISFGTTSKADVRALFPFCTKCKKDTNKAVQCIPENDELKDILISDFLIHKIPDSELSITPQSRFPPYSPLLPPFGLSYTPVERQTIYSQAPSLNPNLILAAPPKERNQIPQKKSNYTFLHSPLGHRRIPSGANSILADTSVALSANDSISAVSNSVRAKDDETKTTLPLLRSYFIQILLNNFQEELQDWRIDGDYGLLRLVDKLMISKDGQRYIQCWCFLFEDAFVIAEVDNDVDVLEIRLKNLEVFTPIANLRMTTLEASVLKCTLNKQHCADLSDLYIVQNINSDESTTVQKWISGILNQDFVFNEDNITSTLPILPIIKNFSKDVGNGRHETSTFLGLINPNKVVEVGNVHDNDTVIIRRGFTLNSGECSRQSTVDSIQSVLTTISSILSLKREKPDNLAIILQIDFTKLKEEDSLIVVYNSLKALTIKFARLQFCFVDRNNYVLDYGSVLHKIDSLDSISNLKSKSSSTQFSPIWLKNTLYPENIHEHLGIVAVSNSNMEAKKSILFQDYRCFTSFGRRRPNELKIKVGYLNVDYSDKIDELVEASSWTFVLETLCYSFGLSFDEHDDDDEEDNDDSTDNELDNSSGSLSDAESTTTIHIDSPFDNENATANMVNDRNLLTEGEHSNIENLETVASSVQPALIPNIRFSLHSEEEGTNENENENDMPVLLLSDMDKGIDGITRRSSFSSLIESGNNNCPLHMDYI

Row | Molecule | binding [1] | binding [2] | binding [6] | further results
1 | Nub fusion of Aip5 (from UniProt P43597 1-1233) | binds | binds |  | 
2 | Dse3_(181-240) (domain or fragment, UniProt Q08729 181-240) SLMQTQTQDCCRKNKYGKSGSEILFDEILSAYENVSTSDSTALNSEIDRIIDICASKQIA |  |  |  | binding [5]: binds
3 | Nub–Msb3_(I85A) (protein, UniProt P48566 1-633) MQNDQQRFSLQNRTVLAHPYKRLGGAFTVKSPSVPNFHDKMHSDHSSSDSALVNGSFRANDHRSVEPSCLGQASPSEHDGNLSVADLYGDEVESQRAEGEDDDDNNGDNGNEDLEEVHSDDLDLVPDDDNRQRVELEGAASATSANSNGINNTHFDRYGFKKQNNYISEAEYDKWWVEYSQYCVRRKHKWQLLLEKSGLPVTDDSPSRFPSKSERLKRYVRKGIPAEWRGNAWWHFARGQEKLNKNKGVYSQLLRKMKQIKKQNPNEKQVQDLDIIERDLNRTFPDNIHFQSSLHNKEGPPIIKSLRRVLVAFSLYNPKIGYCQSMNFLAGLLLLFLDEERAFWMLVIITSRYLPGVHNINLEGVNIDQGVLMLCVKEYIPEVWSYIKPSIDHHQKNNKTFSPSNKKVLFNMQKNEFLYRLPPITLCTASWFMSCFVGVVPIETTLRIWDCLFYEESHFLFKVSLAVLKLSEHDLSKIKPRNNSLNYSWGSNLNQRGGSMGQEDSDMEIFQVIQTFPKTLLNPNEIFEKIIFKRRFNLNRLDQDEIDRCRKFVAAQRLKFKTYGELLGNSTSEADLPINDNTDNKGIHITSDAVNEALSSEVYGFKKSLAGVHWNNSIKEKVKQMRKKKDKGD |  |  | no binding | 

Second part, led by results:

Row | binding [1] | binding [2] | binding [6] | Molecule | further results
4 | binds | binds |  | Nub–Pea2 (protein, UniProt P40091 1-420) MHKFDLELSRRANPLLFSAERYEEYPLKYDELKQYLLSQNPSHPHHNSRPYTSIDYFDYLLYRSKNDESEIDLDKKLVSEFALYYVQKEHLNSDDLNPTLNELLKLQPKSADWYEMMLRILESINTTGIDQLTKENNNSFPNSKRARSSTNMGGTDKFNKGAYHTDKADDDKNEILQELTSFLMSNSIQKGIDIKPIPLDDPVKFLKNGINSILDTCVSLEKNTSSPPISPNAAAIQEEDSSKKLEELETAFSDLQLAHNFLTKQFENDRAEYVQDIEKLTRTNRELQDKLLNNHSNLSKTEKKLHELEQENKELEKANNKLNSSRHNFGMSSPASSPVTWDPSSPSSVGSPTSGSGSRSLSIMTSEFKKVLTSTQRKYEKELSDEREHRFKLERELALLKNAEANTSLALNRDDPPDML | binding [3]: binds; binding [4]: binds
5 |  |  | no binding | Nub–Ste7_(Δ119-123) (protein, UniProt P06784) MFQRKTLQRRNLKGLNLNLHPDVGNNGQLQEKTETHQGQSRIEGHVMSNINAIQNNSNLFLRRGIKKKLTLDAFGDDQAISKPNTVVIQQPQNEPVLVLSSLSQSPCVSSSSSLSTPCSNNFGLSPSSTNSTPSTIQGLSNIATPVENEHSISLPPLEESLSPAAADLKDTLSGTSNGNYIQLQDLVQLGKIGAGNSGTVVKALHVPDSKIVAKKTIPVEQNNSTIINQLVRELSIVKNVKPHENIITFYGAYYNQHINNEIIILMEYSDCGSLDKILSVYKRFVQRGTVSSKKTWFNELTISKIAYGVLNGLDHLYRQYKIIHRDIKPSNVLINSKGQIKLCDFGVSKKLINSIADTFVGTSTYMSPERIQGNVYSIKGDVWSLGLMIIELVTGEFPLGGHNDTPDGILDLLQRIVNEPSPRLPKDRIYSKEMTDFVNRCCIKNERERSSIHELLHHDLIMKYVSPSKDDKFRHWCRKIKSKIKEDKRIKREALDRAKLEKKQSERSTH | binding [7]: binds
6 |  |  | no binding | Nub–Msb3_(Y88A) (protein, UniProt P48566 1-633) MQNDQQRFSLQNRTVLAHPYKRLGGAFTVKSPSVPNFHDKMHSDHSSSDSALVNGSFRANDHRSVEPSCLGQASPSEHDGNLSVIDLAGDEVESQRAEGEDDDDNNGDNGNEDLEEVHSDDLDLVPDDDNRQRVELEGAASATSANSNGINNTHFDRYGFKKQNNYISEAEYDKWWVEYSQYCVRRKHKWQLLLEKSGLPVTDDSPSRFPSKSERLKRYVRKGIPAEWRGNAWWHFARGQEKLNKNKGVYSQLLRKMKQIKKQNPNEKQVQDLDIIERDLNRTFPDNIHFQSSLHNKEGPPIIKSLRRVLVAFSLYNPKIGYCQSMNFLAGLLLLFLDEERAFWMLVIITSRYLPGVHNINLEGVNIDQGVLMLCVKEYIPEVWSYIKPSIDHHQKNNKTFSPSNKKVLFNMQKNEFLYRLPPITLCTASWFMSCFVGVVPIETTLRIWDCLFYEESHFLFKVSLAVLKLSEHDLSKIKPRNNSLNYSWGSNLNQRGGSMGQEDSDMEIFQVIQTFPKTLLNPNEIFEKIIFKRRFNLNRLDQDEIDRCRKFVAAQRLKFKTYGELLGNSTSEADLPINDNTDNKGIHITSDAVNEALSSEVYGFKKSLAGVHWNNSIKEKVKQMRKKKDKGD | 
